Source: paper PMC6364948
These are yes or no findings as the source states them, for the method shown. For part of these data: In cells and extracts the contact can be indirect. Some results given as binding are weak or reduced against the parent protein; the word gives no strength. For part of these data: Tags and fused reporters may be left off the sequences shown.

By UniProt entry, the sequences of proteins in these tests, tags left out. Where a name states a change or a piece, a line headed by the entry shows the natural chain unless it says otherwise. Residues count along the entry.
UniProt P52630: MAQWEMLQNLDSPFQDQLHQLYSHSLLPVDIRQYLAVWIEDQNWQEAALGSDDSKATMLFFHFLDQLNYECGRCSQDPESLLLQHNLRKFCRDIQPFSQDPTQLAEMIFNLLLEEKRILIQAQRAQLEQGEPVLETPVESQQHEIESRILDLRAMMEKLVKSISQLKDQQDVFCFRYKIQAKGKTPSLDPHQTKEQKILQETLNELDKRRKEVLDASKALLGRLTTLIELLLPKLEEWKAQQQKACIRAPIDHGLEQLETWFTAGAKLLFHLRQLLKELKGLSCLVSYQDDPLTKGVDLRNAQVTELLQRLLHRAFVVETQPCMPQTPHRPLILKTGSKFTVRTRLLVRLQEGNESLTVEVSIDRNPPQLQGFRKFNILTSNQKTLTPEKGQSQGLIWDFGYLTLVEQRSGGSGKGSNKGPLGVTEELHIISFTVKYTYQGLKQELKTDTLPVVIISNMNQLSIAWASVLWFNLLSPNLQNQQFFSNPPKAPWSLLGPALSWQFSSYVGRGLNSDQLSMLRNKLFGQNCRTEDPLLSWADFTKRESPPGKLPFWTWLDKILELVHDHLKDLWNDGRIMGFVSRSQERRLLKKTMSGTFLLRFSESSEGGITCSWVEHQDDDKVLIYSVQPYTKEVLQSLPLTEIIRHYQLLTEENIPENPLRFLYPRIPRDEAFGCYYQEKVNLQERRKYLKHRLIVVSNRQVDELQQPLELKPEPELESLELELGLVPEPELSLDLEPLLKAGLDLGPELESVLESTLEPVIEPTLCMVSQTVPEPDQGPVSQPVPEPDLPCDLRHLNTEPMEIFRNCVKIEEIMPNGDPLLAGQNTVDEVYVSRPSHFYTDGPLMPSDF
UniProt Q9NYF8: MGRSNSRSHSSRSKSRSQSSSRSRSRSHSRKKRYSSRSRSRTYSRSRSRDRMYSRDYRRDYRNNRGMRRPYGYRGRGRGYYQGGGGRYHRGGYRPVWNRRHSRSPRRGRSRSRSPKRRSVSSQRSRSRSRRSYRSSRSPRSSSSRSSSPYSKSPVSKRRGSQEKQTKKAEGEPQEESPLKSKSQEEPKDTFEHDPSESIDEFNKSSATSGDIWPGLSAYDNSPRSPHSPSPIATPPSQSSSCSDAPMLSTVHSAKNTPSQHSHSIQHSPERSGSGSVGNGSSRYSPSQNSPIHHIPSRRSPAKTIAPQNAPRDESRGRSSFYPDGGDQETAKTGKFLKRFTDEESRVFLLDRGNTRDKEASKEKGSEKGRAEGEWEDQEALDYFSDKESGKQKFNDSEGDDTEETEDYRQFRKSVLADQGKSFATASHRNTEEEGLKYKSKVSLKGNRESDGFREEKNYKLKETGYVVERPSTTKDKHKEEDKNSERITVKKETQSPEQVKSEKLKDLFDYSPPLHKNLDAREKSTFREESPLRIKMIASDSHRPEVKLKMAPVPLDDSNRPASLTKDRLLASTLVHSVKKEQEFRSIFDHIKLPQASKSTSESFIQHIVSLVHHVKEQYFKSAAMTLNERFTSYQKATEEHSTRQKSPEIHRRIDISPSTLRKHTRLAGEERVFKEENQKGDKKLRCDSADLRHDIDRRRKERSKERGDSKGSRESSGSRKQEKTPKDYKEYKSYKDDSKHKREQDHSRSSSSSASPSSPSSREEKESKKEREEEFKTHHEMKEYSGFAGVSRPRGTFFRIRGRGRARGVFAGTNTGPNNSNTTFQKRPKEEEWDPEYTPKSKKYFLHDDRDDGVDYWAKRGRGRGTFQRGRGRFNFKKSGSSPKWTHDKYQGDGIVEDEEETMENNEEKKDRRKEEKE
GST-Bclaf1 F2: residues 236-620 of Q9NYF8
UniProt P42224: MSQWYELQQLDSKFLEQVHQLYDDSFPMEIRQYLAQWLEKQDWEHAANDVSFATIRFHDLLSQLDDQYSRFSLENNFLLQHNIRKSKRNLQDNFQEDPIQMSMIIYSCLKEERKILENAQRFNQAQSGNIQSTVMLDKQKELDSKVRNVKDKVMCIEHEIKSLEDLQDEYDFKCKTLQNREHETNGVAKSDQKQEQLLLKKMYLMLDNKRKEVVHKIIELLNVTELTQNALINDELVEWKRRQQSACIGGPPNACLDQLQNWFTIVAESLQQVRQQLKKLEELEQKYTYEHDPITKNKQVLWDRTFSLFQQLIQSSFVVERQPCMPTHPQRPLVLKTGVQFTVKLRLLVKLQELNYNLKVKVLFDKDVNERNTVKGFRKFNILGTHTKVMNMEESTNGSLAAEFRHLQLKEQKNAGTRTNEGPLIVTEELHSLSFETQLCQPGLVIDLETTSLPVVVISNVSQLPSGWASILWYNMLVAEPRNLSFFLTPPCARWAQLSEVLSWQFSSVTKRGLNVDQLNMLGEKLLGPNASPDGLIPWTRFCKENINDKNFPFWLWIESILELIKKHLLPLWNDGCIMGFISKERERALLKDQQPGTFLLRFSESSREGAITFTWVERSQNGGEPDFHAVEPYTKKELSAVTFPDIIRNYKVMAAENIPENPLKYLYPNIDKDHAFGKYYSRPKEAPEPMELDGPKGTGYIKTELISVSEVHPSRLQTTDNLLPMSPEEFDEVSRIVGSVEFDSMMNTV

Columns and labels:
[1] = target: STAT2 (endogenous) (human (endogenous in HEp-2 and HeLa)) (UniProt P52630); assay: co-IP; immunoprecipitation with STAT1, STAT2 or IRF9 antibodies from nuclear extracts of HeLa cells treated with PBS or human IFNα (500U/mL) for 2 h or 4 h; blot for endogenous Bclaf1
[2] = target: Flag-tagged Bclaf1-F2 (236–620) (UniProt Q9NYF8); assay: co-IP; HEK293T cells co-transfected with Flag-tagged Bclaf1 or its truncations and Ha-tagged STAT1, STAT2 or IRF9; lysis buffer 50 mM Tris-Cl pH 8.0, 150 mM NaCl, 1% Triton X-100
[3] = target: GST-Bclaf1 F2 (UniProt Q9NYF8); assay: pull-down; GST pull-down: purified His-STAT1/STAT2/IRF9 incubated with GST-Bclaf1 F2 or GST control in PBS with glutathione agarose, 1 h at 4°C; blots with anti-His or GST antibodies; both purified
[4] = target: Flag-Bclaf1 (endogenous Bclaf1 tagged by CRISPR/Cas9 in the HEp-2-Flag-Bclaf1 cell line) (human (endogenous in HEp-2)) (UniProt Q9NYF8); assay: co-IP; Flag-antibody immunoprecipitation from nuclear extracts of HEp-2-Flag-Bclaf1 cells treated with PBS or human IFNα (500U/mL) for 2-4 h; also after si-control or si-STAT2; IgG as control immunoprecipitation

binding [3] | Molecule | also measured
 | Bclaf1 (endogenous, HeLa) (from UniProt Q9NYF8 1-920) | binding [1]: binds
 | Ha-tagged STAT2 (pRK5-Ha-STAT2) (from UniProt P52630 1-851) | binding [2]: binds
no binding | His-STAT1 (from UniProt P42224 1-750) | 
binds | His-STAT2 (from UniProt P52630 1-851) | 
 | STAT2 (endogenous) (from UniProt P52630 1-851) | binding [4]: binds
no binding | His-IRF9 (protein, UniProt Q00978 1-393) MASGRARCTRKLRNWVVEQVESGQFPGVCWDDTAKTMFRIPWKHAGKQDFREDQDAAFFKAWAIFKGKYKEGDTGGPAVWKTRLRCALNKSSEFKEVPERGRMDVAEPYKVYQLLPPGIVSGQPGTQKVPSKRQHSSVSSERKEEEDAMQNCTLSPSVLQDSLNNEEEGASGGAVHSDIGSSSSSSSPEPQEVTDTTEAPFQGDQRSLEFLLPPEPDYSLLLTFIYNGRVVGEAQVQSLDCRLVAEPSGSESSMEQVLFPKPGPLEPTQRLLSQLERGILVASNPRGLFVQRLCPIPISWNAPQAPPGPGPHLLPSNECVELFRTAYFCRDLVRYFQGLGPPPKFQVTLNFWEESHGSSHTPQNLITVKMEQAFARYLLEQTPEQQAAILSLV | 
